# Laboratory results taken from PubChem BioAssay AID1030 (National Center for Advancing Translational Sciences (NCATS), 2008).
# The whole screen tested about 220,000 compounds, of which about 16,000 (7.3%) were called active. Inconclusive results, whose numbers are uncertain, are shown with a selection of clear calls. Calls come from the whole dose curve; as a rule, active = well fitted inhibition curve with a large enough effect (not every such curve was filed as active); inconclusive = small, poorly fitted or top-dose-only effect, or another doubt; inactive = no such curve, though single readings can be large or run the other way. Potencies of inconclusive entries are left out as doubtful fits.
# Target: Aldehyde dehydrogenase 1A1 (Homo sapiens) (UniProt P00352)
# Assay: qHTS Assay for Inhibitors of Aldehyde Dehydrogenase 1 (ALDH1A1);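 for activity, negative = inhibition: plate controls were no enzyme wells and a reference inhibitor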
# Conditions: Purified ALDH1A1, NADH fluorescence, propionaldehyde substrate; series mostly up to 75.3 µM; activity, negative = inhibition: at the top concentration
# Potency is the fitted concentration of half-maximal effect; tags give direction and shape of the fitted curve.
# Sequence of UniProt P00352 (P00352 whole entry, looked up): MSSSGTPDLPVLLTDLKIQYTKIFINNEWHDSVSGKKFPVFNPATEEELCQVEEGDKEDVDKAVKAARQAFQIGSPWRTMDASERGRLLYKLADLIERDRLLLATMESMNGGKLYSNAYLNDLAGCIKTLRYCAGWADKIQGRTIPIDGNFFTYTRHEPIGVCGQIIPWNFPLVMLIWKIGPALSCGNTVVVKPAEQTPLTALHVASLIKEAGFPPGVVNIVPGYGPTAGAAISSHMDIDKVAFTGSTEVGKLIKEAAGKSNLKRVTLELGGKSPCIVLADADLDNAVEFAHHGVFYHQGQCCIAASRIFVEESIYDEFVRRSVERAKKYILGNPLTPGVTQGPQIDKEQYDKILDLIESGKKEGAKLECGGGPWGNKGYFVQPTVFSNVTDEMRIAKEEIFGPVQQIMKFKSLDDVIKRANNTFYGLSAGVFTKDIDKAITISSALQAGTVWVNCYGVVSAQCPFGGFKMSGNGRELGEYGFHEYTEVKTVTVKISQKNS
Structure (SMILES),"activity, negative = inhibition",Potency
O=[N+]([O-])c1cccc(-c2nc(-c3ccccc3)c(-c3cccs3)[nH]2)c1,inactive: 13.8%,–
N#Cc1cc2c(=O)n3ccccc3nc2n(Cc2ccco2)c1=NC(=O)c1ccco1,–,"inconclusive [inhibitor, partial curve]"
Nc1c(-c2ccccc2)c(CSc2nc3ccccc3[nH]2)nn1-c1cccc(Cl)c1,–,"inconclusive [inhibitor, single point]"
CCC(C)c1ccccc1OCCOCCN1CCCC1 (stereo not drawn),inactive: -13.9%,–
Nn1cc(-c2ccccc2)nc1SCC(=O)Nc1ccc2c(c1)OCO2,–,active: 1.41 µM
CCCc1cc(=O)oc2cc(OCC(=O)OC)cc(OCC(=O)OC)c12,–,"inconclusive [inhibitor, partial curve]"
N#CC1=C(N)N(c2ccccc2)C(c2ccccc2)C1(C#N)C#N (stereo not drawn),–,"inconclusive [inhibitor, partial curve]"
CCOC(=O)c1sc(/N=C/N(C)C)nc1C,inactive: -4.26%,–
COCCn1c(=NC(=O)c2sc3ccccc3c2Cl)sc2cc(S(N)(=O)=O)ccc21,–,"inconclusive [inhibitor, partial curve]"
CCOc1ccc(NC(=O)CSc2nnc(CCNC(=O)c3ccc(OC)cc3)n2C)cc1,inactive: 5.8%,–
CCCCNC(=O)CC1N=C2c3ccccc3N=C(SCC(=O)Nc3ccccc3OC)N2C1=O (stereo not drawn),–,"inconclusive [inhibitor, single point]"
O=C(CC1C(=O)NCCN1Cc1ccoc1)NCCc1ccc(Cl)cc1 (stereo not drawn),–,"inconclusive [inhibitor, single point]"
CC(=O)N(c1ccccc1)c1nnc(-c2cnc(C)cn2)s1,–,"inconclusive [inhibitor, single point]"
CC(OC(=O)C(C)N1C(=O)C2C3C=CC(C4CC34)C2C1=O)C(=O)c1ccccc1 (stereo not drawn),inactive: -1.41%,–
CSc1cc(-c2ccccc2)n(Cc2ccc(Cl)cc2Cl)c(=O)c1C#N,–,"inconclusive [inhibitor, partial curve]"
O=C(C1CCN(S(=O)(=O)c2cccc3cccnc23)CC1)N1CCn2c1nc1ccccc12,inactive: 8.45%,–
CC1(C)CC(CCN(Cc2ccccc2)C(=O)c2ccco2)(c2ccccc2)CCO1 (stereo not drawn),–,active: 25.1 µM
Cc1nc(NC(=O)c2ccccc2)sc1-c1csc(Nc2cccc(F)c2)n1,–,"inconclusive [inhibitor, single point]"
Cc1cc(N2CCCC2=O)cc(C)c1S(=O)(=O)NCCOc1ccc(C(C)(C)C)cc1,inactive: -0.64%,–
COc1ccc(S(=O)(=O)N2CCOCC2)cc1NC(=O)Cn1nnc2ccccc2c1=O,–,"inconclusive [inhibitor, single point]"
COc1ccc(CNCc2ccco2)cc1OCc1ccccc1,–,active: 11.2 µM
COc1cccc(OC)c1OCCCCn1cnc2ccccc2c1=O,–,"inconclusive [inhibitor, single point]"
O=C(CNCC1CCCO1)N1CCCCCC1 (stereo not drawn),–,"inconclusive [inhibitor, single point]"
CC(C)Cc1nnc(NS(C)(=O)=O)s1,–,active: 25.1 µM
CC1(C)CC(CC(=O)O)C(=O)O1 (stereo not drawn),inactive: -1.05%,–

Structure (SMILES),"activity, negative = inhibition",Potency
Cc1sc(NC(=O)c2ccc(OCC(C)C)cc2)c(C(N)=O)c1-c1ccc(Cl)cc1Cl,–,"inconclusive [inhibitor, partial curve]"
O=C(CCCCCCN1C(=O)c2ccccc2C1=O)N1CCC(c2ccccc2)C1 (stereo not drawn),–,"inconclusive [inhibitor, single point]"
S=C(NCC1CCCO1)NC12CC3CC(CC(C3)C1)C2 (stereo not drawn),–,"inconclusive [inhibitor, single point]"
Cc1ccc(S(=O)(=O)N(CC(=O)NCc2ccco2)Cc2ccc(F)cc2)cc1,–,"inconclusive [inhibitor, single point]"
COc1cc(-c2nc3cnccn3c2Nc2ccccc2)ccc1O,–,"inconclusive [inhibitor, single point]"
FC(F)(F)c1ccccc1NC(=S)NC1CCN(Cc2ccccc2)CC1,inactive: -9.24%,–
O=C(CSc1nnc(-c2cccnc2)o1)OC1CCCCC1,–,active: 10 µM
COc1ccc(NC(=O)Cn2c(-c3ccc(OC)cc3)cn(-c3ccc(C)cc3)c2=O)cc1,–,active: 15.8 µM
O=C(CC1(O)C(=O)N(Cc2ccccc2)c2ccccc21)c1ccncc1 (stereo not drawn),–,active: 0.0708 µM
O=S(=O)(Nc1cccc(-c2cn3cccnc3n2)c1)c1ccc(-c2ccccc2)cc1,–,"inconclusive [inhibitor, partial curve]"
C/C(=N\N=C(/N)SC1CC(=O)N(c2ccc(Cl)c(Cl)c2)C1=O)c1cccs1 (stereo not drawn),–,"inconclusive [inhibitor, single point]"
COc1ccc(C(=O)c2ccc(OC)c(Br)c2)cc1Br,–,active: 20 µM
CCOc1ccccc1NC(=O)CCn1cccc1,inactive: 12.5%,–
NC(=S)NNC(=O)C12CC3CC(CC(C3)C1)C2,–,"inconclusive [inhibitor, single point]"
CO[C@@]1(NC(=O)Cc2cccs2)C(=O)N2C(C(=O)O)=C(COC(N)=O)CSC21 (stereo partly drawn),inactive: -4.16%,–
Cc1ccc(NC(=S)/C(=C(\[O-])c2ccc(F)cc2)[n+]2ccccc2)cc1,–,active: 10 µM
Cc1cc(/C=N/NC(=O)C(=O)NCc2ccccn2)c(C)n1-c1cccc(Br)c1,–,"inconclusive [inhibitor, partial curve]"
CCCC(=Nc1ccccc1OC)C1=C(O)CC(c2ccccc2)CC1=O (stereo not drawn),–,"inconclusive [inhibitor, single point]"
CCC(C)NC(=O)c1cn(CC)c2ccc(S(=O)(=O)N(C)C)cc2c1=O (stereo not drawn),–,"inconclusive [inhibitor, partial curve]"
COc1ccccc1NC(=O)c1cccnc1,inactive: 8.17%,–
O=C1C=CC(=O)N1N(c1ccccc1)c1ccccc1,–,active: 3.55 µM
COc1ccccc1-c1cc(-c2cc(Cl)ccc2O)n[nH]1,–,"inconclusive [inhibitor, single point]"
O=C(CSc1nnc(CCCN2C(=O)c3cccc4cccc(c34)C2=O)n1-c1ccccc1)N1CCN(CCO)CC1,–,"inconclusive [inhibitor, partial curve]"
CCOC(=O)NNC(=O)c1ccc(Cl)cc1,inactive: -3.42%,–
CN(C)c1nnnn1Cc1ccc(Cl)cc1Cl,inactive: 10.8%,–

Structure (SMILES),"activity, negative = inhibition",Potency
Cc1cc2oc(=O)cc(CN3CCN(S(=O)(=O)c4cccs4)CC3)c2cc1C(C)C,–,"inconclusive [inhibitor, partial curve]"
COc1ccc(C(=O)NCCc2cc3ccc(C)c(C)c3[nH]c2=O)cc1OC,–,"inconclusive [inhibitor, single point]"
O=C(CSc1ccsc1[N+](=O)[O-])NCc1ccccc1,–,active: 3.16 µM
Cc1cc(C)n2cc(CSc3ccc(Br)cc3)nc2n1,–,"inconclusive [inhibitor, partial curve]"
CCN(C(=O)Cc1cccs1)c1nnc(-c2cccnc2)s1,–,"inconclusive [inhibitor, partial curve]"
COc1ccc2cnn(-c3ccc(C)cc3)c(=O)c2c1OC,–,"inconclusive [inhibitor, partial curve]"
O=C(NCC1CCCO1)Nc1ccc2c(c1)OCO2 (stereo not drawn),inactive: -2.18%,–
CCn1c(=N)c(C(=O)NCCCOC)cc2c(=O)n3cccc(C)c3nc21,–,"inconclusive [inhibitor, partial curve]"
CC(=O)c1cnc(-c2ccccc2)s1,inactive: -9.73%,–
CS(=O)(=O)c1nc(-c2ccccc2)cc(-c2ccccc2)c1C#N,–,"inconclusive [inhibitor, partial curve]"
C=CCn1c(C)csc1=Nc1ccc(C(=O)O)cc1,inactive: 0.181%,–
Cc1ccc(C(=O)NCCn2c(N)c(C#N)c3nc4ccccc4nc32)cc1,–,"inconclusive [inhibitor, partial curve]"
CCC(=O)Nc1sc(C(=O)N2CCCCC2)c(C)c1C#N,–,"inconclusive [inhibitor, partial curve]"
Cc1c(C(O)CN2CCN(Cc3ccc4c(c3)OCO4)CC2)c2ccccc2n1C (stereo not drawn),–,"inconclusive [inhibitor, single point]"
O=C(C1CCN(c2nnc(-n3cccc3)s2)CC1)N1CCN(Cc2ccc3c(c2)OCO3)CC1,–,"inconclusive [inhibitor, single point]"
C=CCNc1ncnc2c1[nH]c1ccc(Cl)cc12,–,"inconclusive [inhibitor, partial curve]"
N#Cc1c(-c2ccco2)cc(-c2cccnc2)nc1N,–,"inconclusive [inhibitor, partial curve]"
CC(OC(=O)/C=C/c1ccco1)C(=O)Nc1cccc([N+](=O)[O-])c1 (stereo not drawn),–,"inconclusive [inhibitor, single point]"
O=C(O)CC/C(=N/NC(=O)c1cn(-c2ccccc2)nc1-c1ccccc1)C(=O)O,–,active: 4.47 µM
CSc1ccc(S(=O)(=O)Nc2ccc3c(c2)OCCO3)cc1,–,active: 15.8 µM
Cc1ccc(OCC(=O)Nc2cccc(S(=O)(=O)N3CCCCC3)c2)c([N+](=O)[O-])n1,–,"inconclusive [inhibitor, single point]"
COc1cccc(-c2csc(N3CCN(Cc4ccccc4)CC3)n2)c1,–,active: 10 µM
O=C(C1=C[C@@H](c2csc3ccccc23)C[C@@H](OCc2ccc(CO)cc2)O1)N1CCN(Cc2ccccc2)CC1,–,"inconclusive [inhibitor, single point]"
